{"source": "the supplement of paper PMC8728848", "assay_in_all_cases": "glycan array binding signal (z-score within array); higher = stronger binding", "settings_in_all_cases": "glycan notation: IUPAC condensed, linker removed", "key": {"[1]": {"target": "GlcNAc(b1-4)[GlcNAc(b1-6)]GalNAc", "summary_of_the_method": "(§1)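 The binding signal is a Z-score computed within each array and averaged over linkers. Arrays of the same protein sequence at different concentrations or buffers were also averaged together. Data originate from 3228 arrays in the Consortium for Functional Glycomics database, kept only where the protein sequence was available.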"}, "[2]": {"target": "GlcNAc(b1-6)Gal(b1-4)GlcNAc", "summary_of_the_method": "as §1"}, "GlcNAc(b1-6)GalNAc": {"target": "GlcNAc(b1-6)GalNAc", "summary_of_the_method": "as §1"}, "[3]": {"target": "GlcNAc6S(b1-3)Gal(b1-4)GlcNAc", "summary_of_the_method": "as §1"}, "Kdn(a2-3)Gal(b1-3)GalNAc": {"target": "Kdn(a2-3)Gal(b1-3)GalNAc", "summary_of_the_method": "as §1"}, "Kdn(a2-3)Gal(b1-3)GlcNAc": {"target": "Kdn(a2-3)Gal(b1-3)GlcNAc", "summary_of_the_method": "as §1"}, "Kdn(a2-3)Gal(b1-4)Glc": {"target": "Kdn(a2-3)Gal(b1-4)Glc", "summary_of_the_method": "as §1"}, "Kdn(a2-3)Gal(b1-4)GlcNAc": {"target": "Kdn(a2-3)Gal(b1-4)GlcNAc", "summary_of_the_method": "as §1"}, "[4]": {"target": "Kdn(a2-3)Gal(b1-4)[Fuc(a1-3)]GlcNAc", "summary_of_the_method": "as §1"}, "Kdn(a2-6)Gal(b1-4)GlcNAc": {"target": "Kdn(a2-6)Gal(b1-4)GlcNAc", "summary_of_the_method": "as §1"}, "[5]": {"target": "Man(a1-2)Man(a1-2)Man(a1-3)Man", "summary_of_the_method": "as §1"}, "[6]": {"target": "Man(a1-2)Man(a1-2)Man(a1-6)[Man(a1-3)]Man", "summary_of_the_method": "as §1"}, "Man(a1-2)Man(a1-3)Man": {"target": "Man(a1-2)Man(a1-3)Man", "summary_of_the_method": "as §1"}, "[7]": {"target": "Man(a1-2)Man(a1-3)[Man(a1-2)Man(a1-6)]Man", "summary_of_the_method": "as §1"}, "[8]": {"target": "Man(a1-2)Man(a1-3)[Man(a1-2)Man(a1-6)]Man(a1-6)[Man(a1-2)Man(a1-2)Man(a1-3)]Man", "summary_of_the_method": "as §1"}, "[9]": {"target": "Man(a1-2)Man(a1-3)[Man(a1-2)Man(a1-6)]Man(a1-6)[Man(a1-2)Man(a1-2)Man(a1-3)]Man(b1-4)GlcNAc(b1-4)GlcNAc", "summary_of_the_method": "as §1"}, "[10]": {"target": "Man(a1-2)Man(a1-3)[Man(a1-6)]Man(a1-6)[Man(a1-2)Man(a1-3)]Man(b1-4)GlcNAc(b1-4)GlcNAc", "summary_of_the_method": "as §1"}, "[11]": {"target": "Man(a1-2)Man(a1-6)[Man(a1-3)]Man(a1-6)[Man(a1-2)Man(a1-2)Man(a1-3)]Man", "summary_of_the_method": "as §1"}, "[12]": {"target": "Man(a1-2)Man(a1-6)[Man(a1-3)]Man(a1-6)[Man(a1-2)Man(a1-2)Man(a1-3)]Man(b1-4)GlcNAc(b1-4)GlcNAc", "summary_of_the_method": "as §1"}, "Man(a1-3)[Man(a1-6)]Man": {"target": "Man(a1-3)[Man(a1-6)]Man", "summary_of_the_method": "as §1"}, "[13]": {"target": "Man(a1-3)[Man(a1-6)]Man(a1-6)[Man(a1-2)Man(a1-3)]Man(b1-4)GlcNAc(b1-4)GlcNAc", "summary_of_the_method": "as §1"}, "[14]": {"target": "Man(a1-3)[Man(a1-6)]Man(a1-6)[Man(a1-3)]Man", "summary_of_the_method": "as §1"}, "[15]": {"target": "Man(a1-3)[Man(a1-6)]Man(a1-6)[Man(a1-3)]Man(b1-4)GlcNAc(b1-4)GlcNAc", "summary_of_the_method": "as §1"}, "[16]": {"target": "Man(a1-3)[Man(a1-6)]Man(b1-4)GlcNAc(b1-4)GlcNAc", "summary_of_the_method": "as §1"}, "[17]": {"target": "Man(a1-3)[Man(a1-6)]Man(b1-4)GlcNAc(b1-4)[Fuc(a1-6)]GlcNAc", "summary_of_the_method": "as §1"}, "Man(a1-6)Man": {"target": "Man(a1-6)Man", "summary_of_the_method": "as §1"}, "Man(b1-4)GlcNAc": {"target": "Man(b1-4)GlcNAc", "summary_of_the_method": "as §1"}, "MurNAc(b1-4)GlcNAc": {"target": "MurNAc(b1-4)GlcNAc", "summary_of_the_method": "as §1"}, "Neu5Ac(a2-3)Gal": {"target": "Neu5Ac(a2-3)Gal", "summary_of_the_method": "as §1"}, "[18]": {"target": "Neu5Ac(a2-3)Gal(b1-3)GalNAc", "summary_of_the_method": "as §1"}, "[19]": {"target": "Neu5Ac(a2-3)Gal(b1-3)GalNAc(b1-3)Gal(a1-4)Gal(b1-4)Glc", "summary_of_the_method": "as §1"}, "[20]": {"target": "Neu5Ac(a2-3)Gal(b1-3)GalNAc(b1-4)[Neu5Ac(a2-3)]Gal(b1-4)Glc", "summary_of_the_method": "as §1"}, "[21]": {"target": "Neu5Ac(a2-3)Gal(b1-3)GalNAc(b1-4)[Neu5Ac(a2-8)Neu5Ac(a2-3)]Gal(b1-4)Glc", "summary_of_the_method": "as §1"}, "[22]": {"target": "Neu5Ac(a2-3)Gal(b1-3)GalNAc6S", "summary_of_the_method": "as §1"}, "[23]": {"target": "Neu5Ac(a2-3)Gal(b1-3)GlcNAc", "summary_of_the_method": "as §1"}, "[24]": {"target": "Neu5Ac(a2-3)Gal(b1-3)GlcNAc(b1-2)Man", "summary_of_the_method": "as §1"}, "[25]": {"target": "Neu5Ac(a2-3)Gal(b1-3)GlcNAc(b1-2)Man(a1-3)[GlcNAc(b1-4)][Neu5Ac(a2-3)Gal(b1-3)GlcNAc(b1-2)Man(a1-6)]Man(b1-4)GlcNAc(b1-4)GlcNAc", "summary_of_the_method": "as §1"}}, "note": "The list shows a part of the results."}
{"binder": "Pbx1 (Cryptococcus neoformans) (protein) ATTKCLVSGDQDSINNALALGGEGTTVTLCPGSVHRLNSSIIFTAPSQTLTTLGNPKDRNRAMLVVDGEDLACAIRADCKQCSHAMIRSLVIDGNRPQLLRIPKGDALIEVGNAESQTVRDCKLYEPRGWSALHFREGDERQCRFGHIVDNEIGPCGEEWDDEYDSMDETKPLWGNPRADGISLACKDSIVERNVVYDATDGAIVLFGSAGSTVKNNHVYARTRVILGGINLVDYEPWDGDYTNVKVHHNHLYALGRYFKVGIVIGPASWSDDTESVVHSASVTDNEFSGGYWGYGIVVASAKNFEVLRNKVIWDGEQGVARFSGVPGSRCPKAPENGKPTAFLINRGSAKGIFQDDFVNGEVQHIICLNPDQDPPYKPWRFRDSPEAIAAKQAENPTANSAFDSRIAEALVSYQMSLLNSMDAMTQKVEHLTNPIVDDALPFVHEHERAEADKKARQEASRKEKESGNKDVDMLNVKVEELEKSGRRLKKALDGLKSDFEGLSGRLKKSADENKPIIETIFVTSQNLLLGATSQQN", "values": [{"measurement": "glycan array binding signal (z-score)", "setting": "[1]", "result": -0.078}, {"measurement": "glycan array binding signal (z-score)", "setting": "[2]", "result": -0.045}, {"measurement": "glycan array binding signal (z-score)", "setting": "GlcNAc(b1-6)GalNAc", "result": -0.262}, {"measurement": "glycan array binding signal (z-score)", "setting": "[3]", "result": -0.492}, {"measurement": "glycan array binding signal (z-score)", "setting": "Kdn(a2-3)Gal(b1-3)GalNAc", "result": -0.291}, {"measurement": "glycan array binding signal (z-score)", "setting": "Kdn(a2-3)Gal(b1-3)GlcNAc", "result": -0.179}, {"measurement": "glycan array binding signal (z-score)", "setting": "Kdn(a2-3)Gal(b1-4)Glc", "result": -0.414}, {"measurement": "glycan array binding signal (z-score)", "setting": "Kdn(a2-3)Gal(b1-4)GlcNAc", "result": 0.25}, {"measurement": "glycan array binding signal (z-score)", "setting": "[4]", "result": 0.465}, {"measurement": "glycan array binding signal (z-score)", "setting": "Kdn(a2-6)Gal(b1-4)GlcNAc", "result": 0.284}, {"measurement": "glycan array binding signal (z-score)", "setting": "[5]", "result": -0.536}, {"measurement": "glycan array binding signal (z-score)", "setting": "[6]", "result": -0.052}, {"measurement": "glycan array binding signal (z-score)", "setting": "Man(a1-2)Man(a1-3)Man", "result": -0.774}, {"measurement": "glycan array binding signal (z-score)", "setting": "[7]", "result": -0.431}, {"measurement": "glycan array binding signal (z-score)", "setting": "[8]", "result": -0.49}, {"measurement": "glycan array binding signal (z-score)", "setting": "[9]", "result": 0.114}, {"measurement": "glycan array binding signal (z-score)", "setting": "[10]", "result": -0.619}, {"measurement": "glycan array binding signal (z-score)", "setting": "[11]", "result": -0.306}, {"measurement": "glycan array binding signal (z-score)", "setting": "[12]", "result": -0.921}, {"measurement": "glycan array binding signal (z-score)", "setting": "Man(a1-3)[Man(a1-6)]Man", "result": -0.673}, {"measurement": "glycan array binding signal (z-score)", "setting": "[13]", "result": -0.213}, {"measurement": "glycan array binding signal (z-score)", "setting": "[14]", "result": -0.17}, {"measurement": "glycan array binding signal (z-score)", "setting": "[15]", "result": -1.04}, {"measurement": "glycan array binding signal (z-score)", "setting": "[16]", "result": -0.173}, {"measurement": "glycan array binding signal (z-score)", "setting": "[17]", "result": -0.297}, {"measurement": "glycan array binding signal (z-score)", "setting": "Man(a1-6)Man", "result": -0.843}, {"measurement": "glycan array binding signal (z-score)", "setting": "Man(b1-4)GlcNAc", "result": 0.583}, {"measurement": "glycan array binding signal (z-score)", "setting": "MurNAc(b1-4)GlcNAc", "result": 5.14}, {"measurement": "glycan array binding signal (z-score)", "setting": "Neu5Ac(a2-3)Gal", "result": -0.181}, {"measurement": "glycan array binding signal (z-score)", "setting": "[18]", "result": -0.093}, {"measurement": "glycan array binding signal (z-score)", "setting": "[19]", "result": -0.899}, {"measurement": "glycan array binding signal (z-score)", "setting": "[20]", "result": -0.526}, {"measurement": "glycan array binding signal (z-score)", "setting": "[21]", "result": -0.5}, {"measurement": "glycan array binding signal (z-score)", "setting": "[22]", "result": -0.58}, {"measurement": "glycan array binding signal (z-score)", "setting": "[23]", "result": -0.686}, {"measurement": "glycan array binding signal (z-score)", "setting": "[24]", "result": 0.324}, {"measurement": "glycan array binding signal (z-score)", "setting": "[25]", "result": -0.214}]}
